Measured values as given in the supplement of paper PMC11246515.
± gives the standard deviation of the averaged measurements.

Experiment: total protein half-life in vivo (active degradation + dilution); higher = more stable protein
[1] = E. coli NCM3722 delta-clpP delta-lon delta-hslV, growth: N-lim chemostat, doubling time 6 h
[2] = E. coli NCM3722 delta-clpP, growth: N-lim chemostat, doubling time 6 h
[3] = E. coli NCM3722 delta-hslV, growth: N-lim chemostat, doubling time 6 h
[4] = E. coli NCM3722 delta-smpB, growth: N-lim chemostat, doubling time 6 h
[5] = wild type E. coli NCM3722, growth: C-lim chemostat, doubling time 3 h
[6] = wild type E. coli NCM3722, growth: C-lim chemostat, doubling time 12 h
[7] = wild type E. coli NCM3722, growth: P-lim chemostat, doubling time 6 h
[8] = E. coli NCM3722 delta-lon, growth: N-lim chemostat, doubling time 6 h
[9] = wild type E. coli NCM3722, growth: C-lim chemostat, doubling time 6 h
[10] = wild type E. coli NCM3722, growth: N-lim chemostat, doubling time 6 h
[11] = wild type E. coli NCM3722, growth: N-lim chemostat, doubling time 12 h
[12] = wild type E. coli NCM3722, growth: P-lim chemostat, doubling time 12 h

## MHIGQALDLVSRYDSLRNPLTSLGDYLDPELISRCLAESGTVTLRKRRLPLEMMVWCIVGMALERKEPLHQIVNRLDIMLPGNRPFVAPSAVIQARQRLGSEAVRRVFTKTAQLWHNATPHPHWCGLTLLAIDGVFWRTPDTPENDAAFPRQTHAGNPALYPQVKMVCQMELTSHLLTAAAFGTMKNSENELAEQLIEQTGDNTLTLMDKGYYSLGLLNAWSLAGEHRHWMIPLRKGAQYEEIRKLGKGDHLVKLKTSPQARKKWPGLGNEVTARLLTVTRKGKVCHLLTSMTDAMRFPGGEMGDLYSHRWEIELGYREIKQTMQRSRLTLRSKKPELVEQELWGVLLAYNLVRYQMIKMAEHLKGYWPNQLSFSESCGMVMRMLMTLQGASPGRIPELMRDLASMGQLVKLPTRRERAFPRVVKERPWKYPTAPKKSQSVA
[1]
  total protein half-life in vivo: 5.37 h
[2]
  total protein half-life in vivo: 4.69 h
[3]
  total protein half-life in vivo: 3.43 h
[4]
  total protein half-life in vivo: 3.65 ± 0.31 h
[5]
  total protein half-life in vivo: 2.3 ± 0.24 h
[6]
  total protein half-life in vivo: 8.37 h
[7]
  total protein half-life in vivo: 4.8 h

## MITGIQITKAANDDLLNSFWLLDSEKGEARCIVAKAGYAEDEVVAVSKLGDIEYREVPVEVKPEVRVEGGQHLNVNVLRRETLEDAVKHPEKYPQLTIRVSGYAVRFNSLTPEQQRDVIARTFTESL
[1]
  total protein half-life in vivo: 5.3 ± 0.86 h
[2]
  total protein half-life in vivo: 2.93 ± 0.1 h
[3]
  total protein half-life in vivo: 1.53 ± 0.26 h
[8]
  total protein half-life in vivo: 2.37 ± 0.12 h
[4]
  total protein half-life in vivo: 1.49 ± 0.1 h
[5]
  total protein half-life in vivo: 1.46 ± 0.044 h
[9]
  total protein half-life in vivo: 2.17 ± 0.087 h
[6]
  total protein half-life in vivo: 2.76 ± 0.52 h
[10]
  total protein half-life in vivo: 1.64 ± 0.2 h
[11]
  total protein half-life in vivo: 2.28 ± 0.2 h
[7]
  total protein half-life in vivo: 2.63 ± 0.29 h
[12]
  total protein half-life in vivo: 5.22 ± 0.96 h

## MLKRIKIVTSLLLVLAVFGLLQLTSGGLFFNALKNDKENFTVLQTIRQQQSTLNGSWVALLQTRNTLNRAGIRYMMDQNNIGSGSTVAELMESASISLKQAEKNWADYEALPRDPRQSTAAAAEIKRNYDIYHNALAELIQLLGAGKINEFFDQPTQGYQDGFEKQYVAYMEQNDRLHDIAVSDNNASYSQAMWILVGVMIVVLAVIFAVWFGIKASLVAPMNRLIDSIRHIAGGDLVKPIEVDGSNEMGQLAESLRHMQGELMRTVGDVRNGANAIYSGASEIATGNNDLSSRTEQQAASLEETAASMEQLTATVKQNAENARQASHLALSASETAQRGGKVVDNVVQTMRDISTSSQKIADIISVIDGIAFQTNILALNAAVEAARAGEQGRGFAVVAGEVRNLAQRSAQAAREIKSLIEDSVGKVDVGSTLVESAGETMAEIVSAVTRVTDIMGEIASASDEQSRGIDQVGLAVAEMDRVTQQNAALVEESAAAAAALEEQASRLTEAVAVFRIQQQQRETSAVVKTVTPAAPRKMAVADSEENWETF
[4]
  total protein half-life in vivo: > 8 h
[5]
  total protein half-life in vivo: 2.501 ± 0.017 h
[9]
  total protein half-life in vivo: 4.53 ± 0.32 h
[6]
  total protein half-life in vivo: 7.03 ± 2.4 h
[7]
  total protein half-life in vivo: 4.48 h

## MQHKLLINGELVSGEGEKQPVYNPATGDVLLEIAEASAEQVDAAVRAADAAFAEWGQTTPKVRAECLLKLADVIEENGQVFAELESRNCGKPLHSAFNDEIPAIVDVFRFFAGAARCLNGLAAGEYLEGHTSMIRRDPLGVVASIAPWNYPLMMAAWKLAPALAAGNCVVLKPSEITPLTALKLAELAKDIFPAGVINILFGRGKTVGDPLTGHPKVRMVSLTGSIATGEHIISHTASSIKRTHMELGGKAPVIVFDDADIEAVVEGVRTFGYYNAGQDCTAACRIYAQKGIYDTLVEKLGAAVATLKSGAPDDESTELGPLSSLAHLERVGKAVEEAKATGHIKVITGGEKRKGNGYYYAPTLLAGALQDDAIVQKEVFGPVVSVTPFDNEEQVVNWANDSQYGLASSVWTKDVGRAHRVSARLQYGCTWVNTHFMLVSEMPHGGQKLSGYGKDMSLYGLEDYTVVRHVMVKH
[1]
  total protein half-life in vivo: 4.71 ± 0.69 h
[2]
  total protein half-life in vivo: 3.61 ± 0.12 h
[3]
  total protein half-life in vivo: 3.57 ± 0.1 h
[8]
  total protein half-life in vivo: 3.8 ± 0.14 h
[4]
  total protein half-life in vivo: 3.54 ± 0.27 h
[5]
  total protein half-life in vivo: 2.87 ± 0.12 h
[9]
  total protein half-life in vivo: 5.41 ± 0.44 h
[6]
  total protein half-life in vivo: 8.728 ± 0.035 h
[10]
  total protein half-life in vivo: 3.44 ± 0.1 h
[11]
  total protein half-life in vivo: 5.229 ± 0.048 h
[7]
  total protein half-life in vivo: 5.42 ± 0.3 h
[12]
  total protein half-life in vivo: 10.2 ± 0.2 h

## MSATKLTRREQRARAQHFIDTLEGTAFPNSKRIYITGTHPGVRVPMREIQLSPTLIGGSKEQPQYEENEAIPVYDTSGPYGDPQIAINVQQGLAKLRQPWIDARGDTEELTVRSSDYTKARLADDGLDELRFSGVLTPKRAKAGRRVTQLHYARQGIITPEMEFIAIRENMGRERIRSEVLRHQHPGMSFGAHLPENITAEFVRDEVAAGRAIIPANINHPESEPMIIGRNFLVKVNANIGNSAVTSSIEEEVEKLVWSTRWGADTVMDLSTGRYIHETREWILRNSPVPIGTVPIYQALEKVNGIAEDLTWEAFRDTLLEQAEQGVDYFTIHAGVLLRYVPMTAKRLTGIVSRGGSIMAKWCLSHHQENFLYQHFREICEICAAYDVSLSLGDGLRPGSIQDANDEAQFAELHTLGELTKIAWEYDVQVMIEGPGHVPMQMIRRNMTEELEHCHEAPFYTLGPLTTDIAPGYDHFTSGIGAAMIGWFGCAMLCYVTPKEHLGLPNKEDVKQGLITYKIAAHAADLAKGHPGAQIRDNAMSKARFEFRWEDQFNLALDPFTARAYHDETLPQESGKVAHFCSMCGPKFCSMKISQEVRDYAATQTIEMGMADMSENFRARGGEIYLRKEEA
[1]
  total protein half-life in vivo: 4.94 ± 0.62 h
[2]
  total protein half-life in vivo: 3.13 ± 0.41 h
[3]
  total protein half-life in vivo: 1.1 ± 0.19 h
[8]
  total protein half-life in vivo: 1.49 ± 0.14 h
[4]
  total protein half-life in vivo: 1.08 ± 0.037 h
[5]
  total protein half-life in vivo: 1.41 ± 0.15 h
[9]
  total protein half-life in vivo: 2.094 ± 0.007 h
[6]
  total protein half-life in vivo: 2.78 ± 0.31 h
[10]
  total protein half-life in vivo: 1.28 ± 0.075 h
[11]
  total protein half-life in vivo: 1.52 ± 0.023 h
[7]
  total protein half-life in vivo: 1.77 ± 0.33 h
[12]
  total protein half-life in vivo: 3.1 ± 0.83 h
